Laboratory results from publication PMC7566708, “Fibroblast growth factor homologous factors tune arrhythmogenic late NaV1.5 current in calmodulin binding–deficient channels” (JCI Insight, 2020).

Molecular target: T1, FGF13 (UniProt Q92913-1 1-245)
T1 construct: FGF13 used for isothermal titration calorimetry; also called FHF; fibroblast growth factor homologous factor
T1 sequence (looked up): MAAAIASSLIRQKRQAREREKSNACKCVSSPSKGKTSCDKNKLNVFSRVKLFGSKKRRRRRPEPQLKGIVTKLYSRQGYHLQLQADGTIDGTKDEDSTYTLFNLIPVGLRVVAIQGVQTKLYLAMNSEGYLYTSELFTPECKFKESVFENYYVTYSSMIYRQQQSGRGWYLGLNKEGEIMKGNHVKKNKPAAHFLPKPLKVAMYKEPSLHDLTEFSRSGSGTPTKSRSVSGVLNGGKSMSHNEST
Assay: ITC; NaV1.5 C-terminal domain (20-51 uM) titrated with FGF13 (240-510 uM); ITC-200, 20°C; single-site binding model
Details: both partners purified

B1: NaV1.5 C-terminal domain (domain or fragment)
chain: not shown
notes: C-terminal domain of the cardiac sodium channel NaV1.5 (SCN5A); also called C-terminus of NaV1.5; NaV1.5 carboxy-terminus
Kd: 16.6 nM
